Experimental data: publication PMC4336329 (PLoS ONE, 2015)
The whole screen tested about 310,000 compounds, of which about 14,000 (4.5%) showed an effect of 50% or more. Effects have a minus sign here. Some of the results follow.

The compounds below were run against human ether-à-go-go-related gene (hERG) potassium channel (human, UniProt Q12809) (assay: primary screen, population patch clamp on CHO cells stably expressing hERG).
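Further: peak tail current of the secondary pulse compared with the same well before compound.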

Sequence of human ether-à-go-go-related gene (hERG) potassium channel (Q12809 whole entry, looked up): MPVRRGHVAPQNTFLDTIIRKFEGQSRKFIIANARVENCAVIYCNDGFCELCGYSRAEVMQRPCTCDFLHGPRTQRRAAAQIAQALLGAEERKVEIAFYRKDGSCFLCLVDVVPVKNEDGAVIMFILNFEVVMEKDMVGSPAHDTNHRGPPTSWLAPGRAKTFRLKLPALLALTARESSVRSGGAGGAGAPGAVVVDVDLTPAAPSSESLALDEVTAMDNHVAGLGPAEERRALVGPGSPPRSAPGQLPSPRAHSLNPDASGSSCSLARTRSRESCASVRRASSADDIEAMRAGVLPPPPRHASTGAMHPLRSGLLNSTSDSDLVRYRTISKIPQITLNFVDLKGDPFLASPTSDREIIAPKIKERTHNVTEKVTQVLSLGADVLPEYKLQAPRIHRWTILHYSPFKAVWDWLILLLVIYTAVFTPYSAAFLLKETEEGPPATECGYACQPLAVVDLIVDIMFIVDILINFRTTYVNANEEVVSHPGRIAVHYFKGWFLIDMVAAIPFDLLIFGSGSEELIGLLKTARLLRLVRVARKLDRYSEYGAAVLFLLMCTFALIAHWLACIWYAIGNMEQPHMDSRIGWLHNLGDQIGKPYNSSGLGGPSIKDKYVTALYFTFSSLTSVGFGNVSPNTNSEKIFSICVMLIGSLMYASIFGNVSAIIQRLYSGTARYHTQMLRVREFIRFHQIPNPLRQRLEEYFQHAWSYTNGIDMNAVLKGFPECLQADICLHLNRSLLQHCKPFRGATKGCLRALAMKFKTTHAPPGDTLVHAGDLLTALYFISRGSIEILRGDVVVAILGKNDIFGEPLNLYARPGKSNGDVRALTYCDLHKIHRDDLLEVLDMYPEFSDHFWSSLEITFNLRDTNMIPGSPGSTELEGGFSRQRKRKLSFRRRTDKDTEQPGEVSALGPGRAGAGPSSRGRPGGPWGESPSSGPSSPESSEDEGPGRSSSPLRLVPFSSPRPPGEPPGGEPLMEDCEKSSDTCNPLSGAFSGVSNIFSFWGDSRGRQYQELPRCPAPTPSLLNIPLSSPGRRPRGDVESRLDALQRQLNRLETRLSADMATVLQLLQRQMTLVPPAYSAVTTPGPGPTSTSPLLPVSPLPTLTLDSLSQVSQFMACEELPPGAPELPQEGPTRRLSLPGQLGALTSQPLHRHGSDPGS

SMILES | hERG current change (%, negative = inhibition) at 10uM [%]
Cc1cc(C)cc(NC(=O)C(OC(=O)c2ccc(NC(=O)CC#N)cc2)c2ccccc2)c1 (stereo not shown) | -6.68
COc1ccc(-n2nnnc2SCC(=O)N2CCN(C(=O)c3ccco3)CC2)cc1OC | -3.54
Cc1ccc(Nc2nc(N)nc(CN3CCN(Cc4ccc5c(c4)OCO5)CC3)n2)cc1Cl | -81.2
CCCC(=O)Nc1ccc2c(c1)Cc1ccccc1-2 | 7.33
O=C(NCCc1ccccc1)c1cccnc1N1CCCCCC1 | -9.27
O=C(CN1C(=O)COc2ccccc21)NCCN1CCCC1 | 13.6
COc1ccc(C(=O)NNC2=CC(=O)CC(C)(C)C2)cc1 | 1.65
O=C(CSc1nn(-c2ccc(F)cc2)c(=S)s1)NC(=O)NCc1ccco1 | 2.66
COc1cccc(C2C([N+](=O)[O-])=C(N)Oc3cc(C)oc(=O)c32)c1 (stereo not shown) | -5.36
CCOc1ccc(N(CC(=O)N2CCCCC2)S(=O)(=O)c2ccc(Cl)cc2)cc1 | -23.1
Br.FC(F)(F)c1nnc2n1N=C(c1ccccc1)CS2 | 21.3
CC(C)CNC(=O)C1Nc2ccc(C(F)(F)F)cc2C2C=CCC12 (stereo not shown) | 11.3
Cc1csc(NC(=O)CSc2nc(C)cs2)n1 | 5.5
O=C(N/N=C/c1cc([N+](=O)[O-])ccc1O)Nc1ccccc1 | 18.2
Cc1nc(NC(C)C)c2oc3ccccc3c2n1.Cl | -11.7
COc1ccccc1CNC(=O)Cn1nnc(-c2ccncc2)n1 | 1.05
COc1ccc(/C(C)=N/N2C(C)CCCC2C)c(OC)c1 (stereo not shown) | 2.37
CC(=O)c1ccc(NC(=O)CSc2nc3[nH]ncc3c(=O)[nH]2)cc1 | 13.6
CC1(OC(=O)c2ccco2)C(=O)C=C2C=C(c3ccsc3)OC=C2C1=O (stereo not shown) | 9.22
COc1ccc(C(=O)NNC(=O)Cc2ccc([N+](=O)[O-])cc2)cc1 | 0.758
C=CCNC(=O)CN1CCC(O)(c2ccc(F)cc2)CC1 | -5.8
O=C(Nc1c2c(nn1-c1ccccc1)CS(=O)C2)c1ccc(S(=O)(=O)N2CCOCC2)cc1 (stereo not shown) | 17.4

SMILES | hERG current change (%, negative = inhibition) at 10uM [%]
Cc1cc(C)nc(NS(=O)(=O)c2ccc(NC(=O)NC3CCCCC3)cc2)n1 | 5.67
Cc1[nH]n(-c2ccc([N+](=O)[O-])cc2)c(=O)c1C=NCCN1CCN(C(=O)c2cccc(F)c2)CC1 | -73.4
COC(=O)c1cc(OC)c(OC)cc1NC(=O)c1ccccc1C | 2.02
CCC(c1nnnn1C1CCCC1)N1CCN(C(=O)c2ccco2)CC1.Cl (stereo not shown) | -10.6
CC(C)n1c(C(O)c2ccccc2)nc2ccccc21 (stereo not shown) | 4.59
CC(C)(C)NC(=O)COC(=O)Cc1ccc(Cl)cc1 | 5.79
CCc1ccc2nc(N(CCCN(C)C)C(=O)c3ccc(S(=O)(=O)N4CCc5ccccc5C4)cc3)sc2c1.Cl | -7.91
Cl.Clc1cccc(CSc2nnc([C@@H]3CCCN3)o2)c1 | 1.31
Brc1ccc(/C=N/Nc2nc3ccccc3o2)cc1 | 17
Cc1cc(N2CCN(c3cccc(C(F)(F)F)c3)CC2)n2nc(C)nc2n1 | -61.9
O=C(Nc1nnc(/C=C/c2ccccc2)s1)c1ccco1 | 6.8
CC(=O)Nc1ccccc1-c1nc2ccccc2nc1OCC(=O)c1ccc(Br)cc1 | -19.2
C#CCN1C(=O)S/C(=C/C=C/c2ccc(N(C)C)cc2)C1=O | 16.9
Cc1ccccc1NC(=O)c1cccc(S(=O)(=O)N2CCOCC2)c1 | 31.9
CCN(CC(=O)Nc1ccc2c(c1)CCC2)Cc1nc2ccccc2c(=O)[nH]1 | -40.8
Cc1cc(F)ccc1NC(=O)CCc1c(C)nn(-c2ccc(N3CCCCC3)nn2)c1C | 13.5
COc1ccc(CCNC(=O)C2CC(c3cccc([N+](=O)[O-])c3)=NO2)cc1 (stereo not shown) | -21.8
Cn1c(C(=O)NCCCN2CCCC2=O)cc2c(=O)n(C)c3ccccc3c21 | -8.51
CCN1CCN(CCCNC(=O)c2ccc3c(c2)N(Cc2ccc(C)cc2)CCS3)CC1 | -44.5
CN1CCN(S(=O)(=O)c2ccc(NC(=S)NC(=O)C3CCCCC3)cc2)CC1 | -0.0441
COc1ccc(NC(=O)[C@H](C)NC(=O)C2CCN(S(=O)(=O)c3ccc(C)cc3)CC2)cc1OC | 3.13
CCN(CC)C(=O)CSc1nnc(CCCCCNC(=O)OC(C)(C)C)o1 | -4.74

SMILES | hERG current change (%, negative = inhibition) at 10uM [%]
O=C(Cc1nnc(NC(=O)c2ccccc2)s1)N/N=C/c1ccc(O)cc1 | 16.1
CC(C)C[C@H](N)c1cn([C@@H](CCCCN)C(=O)N2CCNCC2)nn1.Cl | 12.1
COc1ccc(CCn2c(=N)c(C(=O)NC3CCCCC3)cc3c(=O)n4ccccc4nc32)cc1 | -79.4
O=S(=O)(c1ccc(NC(=S)NCc2ccco2)cc1)N1CCCC1 | 10.1
Cc1cc(C)n2[nH]c(=O)c(N=Nc3ccccc3)c2n1 | 9.18
O=C(N/N=C/c1ccc(-c2ccc([N+](=O)[O-])cc2)o1)c1cccnc1 | -10.6
COc1ccc(NC(=O)c2cccs2)c([N+](=O)[O-])c1 | -3.28
Cc1cc(C)n(-c2ccc(C(=O)Nc3nnc(C)s3)cc2)n1 | 10.9
CC(CCc1ccccc1)NC(=O)c1cnc(Cl)c(Cl)c1 (stereo not shown) | 2.02
Cc1ccc(-c2onc3ccc(Br)cc23)cc1 | 13.8
CC(C)c1ccc(-c2nc(N3CCOCC3)[nH]c(=O)c2C#N)cc1 | 1.33
COCCN(C(=O)COC(=O)CCSc1ccc(F)cc1)c1c(N)n(Cc2ccccc2)c(=O)[nH]c1=O | 1.82
Cc1ccc(C(=O)/C=C/c2ccc(Br)cc2)o1 | -5.18
Nc1nc(SCC(=O)O)[nH]c(=O)c1NC(=O)c1ccccc1F | 24.2
CCC(CC)C(=O)Nc1cccc(SC)c1 | 12.6
CC(C)CC(NC(=O)/C(=C\c1ccco1)NC(=O)c1ccco1)C(=O)O (stereo not shown) | 16.6
O=C(N/N=C/c1ccco1)c1ccc(NC(=O)C2CCCCC2)cc1 | 1.43
Cn1nc(C(=O)NCc2cccc(F)c2)cc1C(=O)NCc1cccc(F)c1 | -14.2
COc1cc2c(cc1OC)C(C)N(S(=O)(=O)c1cnc(Cl)c(Cl)c1)CC2 (stereo not shown) | -1.43
COc1ccc(Cl)cc1NC(=O)Nc1cnccn1 | 15.8
CCn1cc(C(=O)N2CCN(Cc3ccc4c(c3)OCO4)CC2)c(=O)c2ccc(C)nc21 | -1.84
Cc1ccc(C2c3c(oc4ccccc4c3=O)C(=O)N2c2nnc(C(C)C)s2)o1 (stereo not shown) | 1.99

SMILES | hERG current change (%, negative = inhibition) at 10uM [%]
COCCN(CCOC)CC(O)COC(c1ccccc1)c1ccccc1 (stereo not shown) | -35.9
S=C(NCc1ccccc1)N1CCN(C2CCCCC2)CC1 | -62.6
O=C(NCC1CCCO1)c1ccc(COc2ccc(F)cc2)o1 (stereo not shown) | -5.59
Cc1ccnc(SCC(=O)Nc2oc(-c3ccccc3)c(-c3ccccc3)c2C#N)n1 | 13.9
CC(C)OCCCNC(=O)C1CCN(S(=O)(=O)N2CCCCC2)CC1 | 15
CCOC(=O)C1=C(CSc2nc3c(cc2C#N)CN(C)CC3)OC(N)=C(C#N)C1c1ccccc1 (stereo not shown) | -10.8
CCOCCCN(C(=O)CNC(=O)c1ccco1)C(C(=O)NC1CCCC1)c1ccccc1C (stereo not shown) | 20.6
Cc1ccc(S(=O)(=O)N2CCCC(C(=O)NC3=NCCS3)C2)cc1 (stereo not shown) | 10.2
O=C(C1CCCO1)N1CCN(S(=O)(=O)c2ccc(Cl)cc2)CC1 (stereo not shown) | -15.6
O/C(=C\c1ccc2ccccc2n1)c1ccncc1 | -13.6
O=C(c1ccccc1)c1cccs1 | 7.22
O[C@@H]1COC(Nc2ccc(N=Nc3ccccc3)cc2)C[C@@H]1O (stereo partly shown) | 13.6
CCCN(C(=O)c1cccc(S(=O)(=O)N2CCCc3ccccc32)c1)C1CCS(=O)(=O)C1 (stereo not shown) | -24.3
O=C(CCS(=O)(=O)c1ccc(F)cc1)N1CCOCC1 | -38
COc1cc(CCC(=O)OCC(=O)N2CCc3ccccc32)cc(OC)c1OC | 23.7
CCCCn1nnnc1SCC(=O)Nc1ccc2c(c1)OCO2 | 2.41
Cc1ccc(SCc2nn(C)c(Cl)c2C=O)cc1 | -46.9
COc1cccc(NC(=O)CCCn2c(=O)[nH]c3ccccc3c2=O)c1 | 4.65
O=C(OCCc1cc2ccccc2c(=O)o1)c1cccs1 | -1.33
COc1ccc(OC)c(NC(=O)COC(=O)c2c3c(nc4ccccc24)CCCC3)c1 | 1.03
Cc1cc(C)nc(NS(=O)(=O)c2ccc(NC(=O)c3ccc(O)cc3O)cc2)n1 | 17.1
COc1ccc(NC(=O)c2cn(C)c(=O)c3cc(OC)c(OC)cc23)cc1OC | 13.5
